Data reported in PubChem BioAssay AID1745853 (National Center for Advancing Translational Sciences (NCATS), 2022).
Some of the results follow. These are further read-outs of the screen, such as a control signal, another cell line or another target. No call is given for them.

What was measured:
Assay in all cases: Primary Screen for Target Class Profiling of Small Molecule Inhibitors of Methyltransferases
[1] = target: Glycine N-methyltransferase (Homo sapiens) (UniProt Q14749); conditions: purified enzyme, MTase-Glo SAH luminescence; measured here: GNMT inhibition; at 40 µM; stronger effect = lower value
Procedure, shortened: (§1)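 Each enzyme was reacted with SAM and its substrate, with compounds tested once at 40 uM; SAH formed was read by MTase-Glo luminescence.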

[2] = target: Guanidinoacetate N-methyltransferase (Homo sapiens) (UniProt Q14353); conditions: purified enzyme, MTase-Glo SAH luminescence; measured here: GAMT inhibition; at 40 µM; stronger effect = lower value
Procedure, shortened: as §1

[3] = target: Histamine N-methyltransferase (Homo sapiens) (UniProt P50135); conditions: purified enzyme, MTase-Glo SAH luminescence; measured here: HNMT inhibition; at 40 µM; stronger effect = lower value
Procedure, shortened: as §1

[4] = target: Nicotinamide N-methyltransferase (Homo sapiens) (UniProt P40261); conditions: purified enzyme, MTase-Glo SAH luminescence; measured here: NNMT inhibition; at 40 µM; stronger effect = lower value
Procedure, shortened: as §1

[5] = target: Phenylethanolamine N-methyltransferase (Homo sapiens) (UniProt P11086); conditions: purified enzyme, MTase-Glo SAH luminescence; measured here: PNMT inhibition; at 40 µM; stronger effect = lower value
Procedure, shortened: as §1
% is scaled to controls: 0 for no effect and ±100 for the full control effect.

SMILES | activity change, negative = inhibition [1] | activity change, negative = inhibition [2] | activity change, negative = inhibition [3] | activity change, negative = inhibition [4] | activity change, negative = inhibition [5]
O=C1NC(=NC2CCCCC2)C2(CCN(Cc3ccccc3)CC2)N1c1cc(F)cc(F)c1 | -1.44% | 0.156% | 0.273% | 0.281% | -2.32%
C/C=C/C=C/C(O)=C1/C(=O)[C@]2(C)C3/C(=C(O)/C=C/C=C/C)C(=O)C4(C)C1[C@]1(C)O[C@@]4(O)[C@@]3(C)O[C@@]12O | 7.14% | 7% | 10.2% | -4.14% | 9.02%
CC(C)c1cc2n(n1)CC(C)(C(=O)NC1CCCCCC1)N(c1cccc(Cl)c1)C2=O (stereo not given) | 2.35% | 4.92% | 0.823% | 3.33% | -0.229%
Cc1ccc(C2c3cccn3-c3sc4c(c3CN2C(=O)Nc2ccc(F)cc2F)CCCC4)cc1 (stereo not given) | -5.7% | -4.05% | 1.91% | -5.56% | -3.12%
COCC1CN(S(=O)(=O)Cc2cccc(F)c2)CC12CCNCC2 (stereo not given) | -1.8% | 1.66% | -5.68% | -3.33% | 11.5%
CC(C)NCC(C(=O)N1CCN(c2ncnc3c2C(C)CC3O)CC1)c1ccc(Cl)cc1 (stereo not given) | -5.71% | -1.99% | -6.57% | -16.2% | -3.91%
Cc1ccc(N2C(=O)c3ccc(-c4ccco4)n3CC2(C)C(=O)NC2CCCC2)cc1 (stereo not given) | -3.18% | -1.22% | 2.88% | 4.08% | -1.47%
N[C@@H]1CONC1=O | 3.24% | 9.98% | 8.01% | -7.83% | -1.28%
CN1CCC(N2C[C@@H]3C[C@H]2C(=O)N(CC2CC2)c2ccccc2O3)CC1 | -2.42% | -4.27% | -69.1% | -5.96% | -2.88%
CCc1ccccc1NC(=O)c1ncn2c1C(=O)N(C1CC1)C(C)(C(=O)NCc1ccccc1OC)C2 (stereo not given) | 3.94% | 0% | 5.98% | 4.32% | 6.11%
CN1Cc2ccc(NCc3ccccc3)nc2C(C)(C(=O)Nc2ccccc2)C1 (stereo not given) | -6.18% | -1.4% | -7.13% | -14.1% | -1.88%
CC1CCCCC1NC(=O)C1(C)Cn2c(cc3occc32)C(=O)N1CCc1ccc(Cl)cc1 (stereo not given) | -2.16% | 4.76% | -1.98% | -0.219% | -1.18%
CC1CCCCN1CCN1C(=O)c2ccc(-c3ccco3)n2CC1(C)C(=O)NC1CCCCCC1 (stereo not given) | 3.67% | 3.3% | 6.89% | -0.321% | 0.673%
O=C(c1cccs1)N1CCCN(c2cc(-c3ccc(F)cc3)[nH]n2)CC1 | -5.31% | -0.711% | 0.071% | -4.07% | -0.733%
Clc1ccccc1CNC[C@H]1Cn2ccnc2CO1 | -4.89% | -4.01% | -3.81% | -12.5% | -6.42%
COc1cccc(CSc2nnc3n(C)c(=O)c4ccc(C(=O)NC5CCCCC5)cc4n23)c1 | -2.2% | 3.21% | 0.764% | -3.9% | 0.056%
COc1ccc2c(c1O)OC[C@H]1c3ccc(O)cc3O[C@@H]21 | -8.69% | 1.28% | -12.2% | -12.2% | -2.35%
CCOC(=O)c1cc2n(n1)CC(C)(C(=O)NCc1ccccc1)N(Cc1ccc(C)o1)C2=O (stereo not given) | 3.8% | 0% | 13.1% | 11% | 7.35%
